# Reference: PubChem BioAssay AID686978 (National Center for Advancing Translational Sciences (NCATS), 2013)
# Among all 420,000 compounds or so, about 64,000 (15%) were called active. This list was built around the results that the source calls inconclusive (neither active nor inactive); the mix of calls is not that of the screen. Calls follow the shape of the dose curve; as a rule, active = well fitted inhibition curve with a large enough effect; inconclusive = small, poorly fitted or top-dose-only effect; inactive = flat fitted curve, though single readings scatter. No potency is given beside an inconclusive call; the fits are too rough.
# Experiment: qHTS for Inhibitors of human tyrosyl-DNA phosphodiesterase 1 (TDP1): qHTS in cells in absence of CPT; also: nearly all actives have a fitted effect of over 55% in size
# Conditions: DT40 Tdp1-/- hTDP1 cells, no CPT, ATP luminescence, 48 h; activity change, negative = growth inhibition: at 46.2 µM (top of the series) unless noted
# How it was run: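 A cellular qHTS used chicken DT40 cells lacking endogenous Tdp1 but carrying stably transfected human TDP1. Compounds were applied without camptothecin, and cell growth kinetics were judged by ATP-dependent luminescence after ≥48 hr.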
# % is scaled to controls: 0 for no effect and ±100 for the full control effect; potency is read from the fitted curve at half-maximal effect; tags tell the direction and shape of the fitted curve.
Compound,Potency,"activity change, negative = growth inhibition"
Fc1ccccc1N1CCN(CC2CCCCC2)CC1,inactive,
CCc1ccc(N(C(=O)Cc2cccs2)C(C(=O)NC2CCCCC2)c2cn(C)nc2C)cc1 (stereo unspecified),"inconclusive [inhibitor, partial curve]",
COc1ccc(N2C(=O)c3ccccc3NC(=O)C2C(=O)Nc2ccc(N3CCOCC3)cc2)cc1 (stereo unspecified),"inconclusive [inhibitor, single point]",
COc1cccc(Oc2cn[nH]c2-c2ccc(O)cc2O)c1,"inconclusive [inhibitor, single point]",
COc1ccc(NC(=O)Nc2cccc3c2O[C@@H](CN(C)CC2CCCCC2)[C@@H](C)CN([C@H](C)CO)C3=O)cc1,"inconclusive [inhibitor, single point]",
Cc1cc(Cl)ccc1NC(=S)NCCN1CCOCC1,inactive,
CCOc1ccccc1C1C(C#N)=C(N)Oc2n[nH]c(CC)c21 (stereo unspecified),,inconclusive: -30.5% [inhibitor]
CC(NC(=O)c1ccco1)C(=O)N1CCN(c2cccc(C(F)(F)F)c2)CC1 (stereo unspecified),active: 10.3 µM,
Cc1cc([N+](=O)[O-])nn1CC(=O)Nc1ccc(F)cc1,inactive,
Cc1ccc(NC(=O)CN2C(=O)COc3ccc(S(=O)(=O)N4CCCCC4)cc32)cc1Cl,"inconclusive [inhibitor, single point]",
CCc1ccc(S(=O)(=O)NCc2cn3c(C)csc3n2)s1,"inconclusive [inhibitor, single point]",
CCOc1cc(CNCCSc2nnnn2C)ccc1OCc1ccc(Cl)cc1Cl,active: 25.9 µM,
CC(=O)Nc1ccc(S(=O)(=O)Nc2ccccc2N2CCOCC2)cc1Cl,"inconclusive [inhibitor, single point]",
CSC1=NCCN1C(=O)c1c(F)cccc1Cl,"inconclusive [inhibitor, partial curve]",
Cc1ccc(NC(=O)CN2CCN(S(=O)(=O)c3ccc4c(c3)OCCO4)CC2)c(C)c1,"inconclusive [inhibitor, single point]",
Cc1ccc(S(=O)(=O)/N=C(/Nc2ccc([N+](=O)[O-])cc2[N+](=O)[O-])c2ccccc2)cc1,"inconclusive [inhibitor, single point]",
CCCCn1c(=O)[nH]c(=O)c2c1nc(-c1ccccc1F)n2Cc1ccccc1OC,"inconclusive [inhibitor, single point]",
CC(=O)NC(c1ccccc1)c1nc(-c2cnc3ccccc3c2)cs1 (stereo unspecified),active: 20.6 µM,
CC(C)n1nc(C(=O)NCc2ccc3c(c2)OCO3)c2ccccc2c1=O,active: 20.6 µM,
COC(=O)c1ccc(COc2cccc3c2CCN(Cc2ccccc2)C3=O)o1,"inconclusive [inhibitor, partial curve]",
COC(=O)C1=C(C)N(c2ccc(C)c(C)c2)/C(=C/c2ccc(O)cc2)C1=O,inactive,
N/C(=N\NC(=O)Nc1ccc(Cl)cc1)c1ccccn1,inactive,
CSc1ccc(/C=N/n2c(C3CCCCC3)n[nH]c2=S)cc1,"inconclusive [inhibitor, single point]",
O=C(NCc1ccccc1Cl)c1ccc[nH]1,"inconclusive [inhibitor, partial curve]",

Compound,Potency,"activity change, negative = growth inhibition"
O=C(COc1ccc2ccccc2c1)NNC(=O)c1cnccn1,active: 23.1 µM,
Cc1nn(-c2ccc(C(F)(F)F)cn2)c(C)c1Oc1ccccc1O,"inconclusive [inhibitor, single point]",
CCN(CC)C(=O)C1CCCN(Cc2ccccc2)C1 (stereo unspecified),inactive,
COc1cc(NCCCNC(C)C)c2nccc(C)c2c1,"inconclusive [inhibitor, single point]",
O=C(Nc1ccc(F)cc1)N(CCCN1CCOCC1)Cc1cc2cc3c(cc2[nH]c1=O)OCO3,"inconclusive [inhibitor, single point]",
CCOC(=O)N1CCN(Cc2nc3cc(NC(=O)c4cccs4)ccc3n2C)CC1,inactive,
COc1ccc(OC)c(C(=O)CSc2nc3ccccc3n2CC(=O)NC(C)(C)C)c1,inactive,
CC(/C=N/n1c(-c2ccccc2)n[nH]c1=S)=C\c1ccco1,"inconclusive [inhibitor, single point]",
CC(C)CCNC(=O)c1ccc(Cn2c(SCC(=O)NC(C)C)nc3ccccc3c2=O)cc1,"inconclusive [inhibitor, single point]",
O=C(Nc1c(C(=O)O)oc2ccc(Br)cc12)c1ccccc1,"inconclusive [inhibitor, single point]",
CCc1ccc(C(=O)/C=C/Nc2ccc(S(=O)(=O)Nc3onc(C)c3C)cc2)cc1,inactive,
Cc1ccc(N(Cc2cc3ccc(C)cc3[nH]c2=O)S(=O)(=O)c2ccccc2)c(C)c1,"inconclusive [inhibitor, partial curve, poor fit]",
O=c1c(Cl)c(NCc2ccccc2)cnn1C12CC3CC(CC(C3)C1)C2,"inconclusive [inhibitor, single point]",
Cc1cc(/C=N/O)c(C)n1-c1cccc(Cl)c1,"inconclusive [inhibitor, single point]",
C=CCNc1nc(NCc2cccc(OC)c2)c2sc(-c3ccccc3)cc2n1,active: 4.11 µM,
O=S(=O)(c1ccccc1)c1ncc(C(F)(F)F)cc1Cl,active: 3.66 µM,
OCC[C@@H]1C[C@H](O)[C@@H](O)[C@]2(OCCc3cc(Cl)ccc32)O1,inactive,
CCCCCC(=O)Nc1ccc(C2C(=O)c3ccccc3C2=O)cc1,inactive,
O=C(NCCCl)Nc1ccc(Cl)c([N+](=O)[O-])c1,"inconclusive [inhibitor, single point]",
O=C(Nc1ccccc1)c1ccco1,inactive,
Cc1oc2ccc(OCc3ccc(F)cc3)cc2c1C(=O)O,inactive,
Cc1cc(OCC(=O)Nc2ccccc2N2CCCCC2)ccc1C(C)C,"inconclusive [inhibitor, single point]",
O=C(/C=C/c1cccs1)N1CCN(c2ccc(F)cc2)CC1,"inconclusive [inhibitor, single point]",
O=C(NN(c1ccccc1)c1ccccc1)c1ccc([N+](=O)[O-])o1,"inconclusive [inhibitor, single point]",

Compound,Potency,"activity change, negative = growth inhibition"
Cc1ccc(NC(=O)C2CCN(S(=O)(=O)c3cccs3)CC2)c(O)c1,"inconclusive [inhibitor, single point]",
Cc1ccc2nc(Cl)c3cc(C(=O)NCCCN4CCC(C)CC4)sc3c2c1,"inconclusive [inhibitor, partial curve, poor fit]",
Cc1cc(OCn2ccc(C(=O)O)n2)ccc1Cl,inactive,
Cc1ccc(Oc2ccc3c(c2)C(=O)N(c2cccc4cccnc24)C3=O)cc1,inactive,
CCC1(C(=O)OC)CCc2c(cc(OC)c3ccccc23)C1=O (stereo unspecified),"inconclusive [inhibitor, partial curve]",
COc1ccc(NC(=O)CN(C)CC(=O)Nc2ccc(Cl)cc2[N+](=O)[O-])cc1,"inconclusive [inhibitor, single point]",
CCOc1ccc(-n2c(-c3ccccc3)nnc2-c2ccccc2)cc1,"inconclusive [inhibitor, single point]",
COc1ccc(N(C(=O)c2ccco2)S(=O)(=O)c2cc(Cl)c(Cl)cc2Cl)cc1,"inconclusive [inhibitor, single point]",
COc1ccc(S(=O)(=O)N(C)CC(=O)Nc2ccc(C(F)(F)F)cc2)cc1Cl,"inconclusive [inhibitor, single point]",
CCOCCCN1CC(=O)N2[C@@H](Cc3c([nH]c4ccccc34)C2(C)C)C1=O,"inconclusive [inhibitor, single point]",
CCc1ccc(-n2c(SCC(=O)NC(C)CC)nc3n[nH]c(C)c3c2=N)cc1 (stereo unspecified),active: 5.17 µM,
C[C@H]1Cn2cnc(C(=O)NCc3ccc(CNC(=O)OC(C)(C)C)cc3)c2C(=O)N1,"inconclusive [inhibitor, partial curve]",
O=C(NCc1ccccc1)N1CCN(c2ccc(F)cc2)CC1,active: 14.6 µM,
COc1ccc(NC(=O)Cc2csc(COc3cccc(C)c3)n2)cc1OC,active: 25.9 µM,
N#C/C(=C\c1ccc(O)c(O)c1)C(=O)c1ccc(O)c(O)c1,"inconclusive [inhibitor, single point]",
Cn1c(=O)[nH]c(=O)c2c1nc(NCc1ccccc1)n2CCCc1ccccc1,"inconclusive [inhibitor, single point]",
Cc1ccc(/C(N)=N/OC(=O)c2cccs2)cc1,active: 20.6 µM,
COc1cc(N(C)C)c(OC)cc1C=C1C=CC=C1,"inconclusive [inhibitor, single point]",
O=c1c(-c2cccs2)nc2cnc(Oc3cccc(Cl)c3)nc2n1C[C@H]1CCCO1,"inconclusive [inhibitor, single point]",
COc1ccc(N(CC(O)Cn2c3ccccc3c3ccccc32)S(=O)(=O)c2ccccc2)cc1 (stereo unspecified),"inconclusive [inhibitor, single point]",
CCOC(=O)C1CCCN(C(=O)c2cc(S(=O)(=O)N3CCCCC3)c[nH]2)C1 (stereo unspecified),inactive,
NC(=O)c1cccc(-c2coc3c(C(=O)NCc4ccccc4)cccc23)c1,active: 18.4 µM,
CCc1cc2c(cc3c(=O)n(CC(=O)N4CCCCC4)nc(CC)n32)s1,"inconclusive [inhibitor, single point]",
